Over roughly 33,000 sequences, “E-score (-0.5 to 0.5)” has its median near -0.04; the highest 2% begin near 0.36. The list shows a part of the results.
biological target: T1, Hmlalpha2 (UniProt P0CY09); assay: PBM E-score (8-mer binding enrichment) (E-score (-0.5 to 0.5)); higher = stronger / more preferred TF binding; most listed sequences are background and not binding sites; settings: protein concentration: 200 nM; construct: GST-full length
T1 sequence: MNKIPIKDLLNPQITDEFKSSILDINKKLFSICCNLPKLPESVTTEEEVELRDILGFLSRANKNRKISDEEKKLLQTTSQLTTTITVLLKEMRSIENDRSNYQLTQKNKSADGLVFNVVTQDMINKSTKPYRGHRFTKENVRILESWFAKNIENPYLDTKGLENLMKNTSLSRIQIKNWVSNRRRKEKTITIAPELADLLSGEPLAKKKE
How it was run: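 Universal all-10-mer Agilent arrays, double-stranded by primer extension on fresh or once-stripped slides, were probed with about 100-200 nM GST-tagged yeast transcription factors made by PURExpress. Fluorescent anti-GST detected bound protein, and masliner normalised the scans. E-scores from the Universal PBM Analysis Suite were given to each ungapped eight-base word pooled with its reverse complement.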

Sequence	PBM E-score
GAAGCGGC	-0.131
AGGGGGGC	-0.403
CTAGTCGC	-0.164
CTAGACAA	0.0678
CAGGAACA	0.0389
GTATTGCA	0.118
TATATTCA	0.112
CCAAGTGG	0.0248
TCTGTGAA	0.0508
CCCGATAA	-0.0827
TAGTACCA	-0.0256
CAGTTATA	0.0134
CGCTCGGA	-0.102
AACCCCTC	-0.215
ACCTTCCT	-0.0704
CCGTAGAC	-0.136
CAATAACG	0.215
CATCAGCG	0.0761
CAAAAAAA	0.0591
TACGCTAA	0.236
ACGTGTTC	0.211
TATATGGA	-0.137
AGTTCCAC	0.0103
ATCCAAAC	0.0909
CGGCGCGC	-0.205

Sequence	PBM E-score
AACCAGCC	-0.0281
AGATTCAC	-0.00821
TAGGCCGA	-0.269
CTTATTTA	0.066
AAAAGGTC	-0.0222
CGAGTGGA	-0.137
CTGTTTTA	0.0458
CAACATGC	0.398
CCAATACC	-0.111
GCACCGGA	-0.273
CGTCCGTA	0.00793
ACCTAGAT	-0.129
CAACAATC	0.262
CTTGTCCA	-0.0934
CAACTCGC	0.176
CCCTCTAA	-0.218
GTCACAGA	-0.143
ATAGCGAA	0.0732
CACGTACG	0.0953
TGAGAGAA	0.0317
AGACGGTC	-0.222
AACGGGAC	-0.23
TGTTCTAA	0.236
CACCCCGA	-0.258
GCACGTCC	-0.0501

Sequence	PBM E-score
CGCGCGCA	0.0221
ATCCTCGC	-0.199
ACCCGGGC	-0.235
ATAAGCAG	-0.00191
ACTATACC	0.00961
CGTACGGA	-0.126
GTTGACCA	0.038
AAGTTACT	0.0608
CCTAGAGG	-0.202
TCAATACA	0.372
AGCGAGTG	0.107
AAGAGTCA	-0.00825
AATGAAAG	0.0405
ATAACACC	0.259
GTGTGCTA	0.0731
ATATCTCG	-0.151
CATGCGTC	0.0587
AGCCGAGC	-0.209
GAGCGAAC	-0.14
GAGCGTCA	-0.107
CGGTATGA	0.058
GGTGTCTA	0.221
AGATTAAG	0.0165
GGGTGAAA	0.0237
AGGGTAGC	-0.247

Sequence	PBM E-score
AGTCGACG	0.111
TGGCGCAA	-0.199
GCCGTGAA	-0.197
ATTAACTC	0.216
AGAGCACC	-0.269
ACGTGATA	0.163
AAAAAAGA	0.0142
CTACTCGA	0.126
AATTAGCA	0.137
TCACCGAA	0.0184
AGCGGACA	-0.196
ACATAAAC	0.337
TCGCCAGA	-0.216
ATTAACGC	0.372
AATAAACC	-0.0152
CATACTCG	-2e-05
AGACAGCA	-0.135
ACCGAAAG	0.0654
AAGTGTTA	0.276
TACTACAA	0.299
ACACGAGA	0.291
CAGTCCAA	-0.263
ATGGGCCA	0.0731
AATATAAC	0.207
AAATGGTT	0.0603

Sequence	PBM E-score
CGCCCGAC	-0.151
CTAGTACC	0.0958
ACGAGAAG	0.0151
GTAGGATA	0.0408
AATCCACG	-0.0225
TAAGCATA	0.115
ATGAAGTC	-0.115
CGACGGGC	-0.031
CATTCGCG	-0.0123
CTAACGGC	-0.09
CAAGCATG	0.119
ACCTTAAT	0.0106
CAATTCAA	0.0842
AATCGGGC	0.00681
ATTTAAAT	0.157
GGATTGCC	-0.29
ACACGAGC	0.261
ATGACTCG	-0.0578
AACTTAGC	0.0276
ACAATCCA	0.0933
AGATAAAG	-0.103
AGTGTTTA	0.299
CAGCTGCC	-0.273
AGCCAAGA	-0.101
ATTTCGGC	0.0545

Sequence	PBM E-score
CCCTTTGC	-0.148
AGTGACGG	-0.158
ACTTTGCC	-0.0921
AGAGAAAA	0.119
GTATATAA	0.29
ATTGGACG	-0.173
GTCAGTGA	-0.146
TCCGATCA	-0.00767
ACATATAT	0.27
CACTACGG	-0.246
ACGACGGC	-0.0422
ACCCCTGA	-0.273
AACCCCGG	-0.232
ATGGATTC	-0.0622
CCACATCA	-0.00283
ACTCTGTG	-0.0258
AAGGTCAT	-0.129
CTGTAACA	0.223
AAAAAAGT	-0.0192
AATTGAGT	0.127
CGGTGCCC	-0.0869
CAATGTCA	0.264
ACTATCGG	-0.242
ACGTAATC	0.392
CTTCCGTA	-0.00688

Sequence	PBM E-score
CCGAGGCG	-0.323
TCACGGCA	-0.0555
TGGACTAA	-0.0654
AGCAAAAA	0.165
ACACACGT	0.352
ATCCAAGG	-0.254
GGATGACA	0.0472
ACAGTCGG	-0.0533
CTTAGTTA	0.151
AGTCCTAA	-0.0904
TAACACGA	0.469
CATTCCAC	-0.0104
GGCAAGCA	-0.213
ACTGTGAC	-0.146
AACCATAG	-0.0629
CTGCTCAA	-0.0451
AACTCCAG	-0.198
GGCTTAGA	-0.122
CTGGGACC	-0.287
CCGCGATC	-0.238
GCGGAAGC	-0.085
AATAAGGA	-0.197
